PubChem BioAssay AID463173 (ICCB-Longwood Screening Facility, Harvard Medical School, 2010)
Screen size: about 52,000 compounds; about 1,700 (3.3%) were called active. No stated cut-off is given here; in the data, active means survival mostly below about 52% (no sharp cut-off); inactive means mostly above about 56%. The list shows a part of the results.

What follows are compounds tested on Wild type (assay: S. aureus survival, RN4220 and DeltatarO strains – OD600, teichoic acid synthesis inhibitors, primary screen (AID 463173)). Conditions: S. aureus RN4220 wild type/DeltatarO growth, OD600, 18 h, active compounds read low, screened at 18.75 µg/mL (by protocol).

SMILES	survival
COc1ccc(NC(=O)c2sc3nc(-c4cc5ccc(OC)cc5oc4=O)[nH]c(=O)c3c2C)cc1	inactive: 90%
Cc1cccc(-n2cc(-c3ccccc3)c3c(N4CCC(C)CC4)ncnc32)c1	inactive: 72%
COc1ccc(Cl)cc1NC(=O)c1cnc(SC)nc1-c1ccccc1	inactive: 22%
Cc1ccccc1NC(=O)C(=O)NCC1(c2ccccc2)CCCC1	inactive: 94%
CCOc1ccc(Nc2nc(C)c(NC(=O)c3ccc(C)cc3)c(Nc3ccc(OCC)cc3)n2)cc1	inactive: 149%
O=C(CSc1nnc(Cc2ccccc2)n1Cc1ccccc1)N1CCCC1	inactive: 112%
O=C(CSc1nnc2scc(-c3ccc(Cl)cc3)n12)Nc1cccc(C(F)(F)F)c1	inactive: 68%
COc1cc(NC(=O)CC(C)S(=O)(=O)c2ccc3c(c2)CCN3C(C)=O)cc(OC)c1OC (stereo not drawn)	inactive: 76%
CCN1CCN(c2ncc3c(n2)CCN(Cc2sccc2C)C3)CC1	inactive: 63%
COc1ccc(Cl)cc1Nc1nc2ccc(C(=O)c3ccccc3)cc2n2cnnc12	inactive: 75%
CCOC(=O)Cc1ccc(NC(=O)N2CCc3c(sc4c3CCCC4)C2c2ccc(F)cc2)cc1 (stereo not drawn)	inactive: 81%
CCn1c(=O)c2cc(C(=O)N3CCN(c4cccc(OC)c4)CC3)sc2c2ccccc21	inactive: 69%
Cc1ccc(NC(=O)CN(C)S(=O)(=O)c2cccc3cccnc23)cc1F	inactive: 71%
Cc1sc2ncn(CC(=O)N3CCN(c4ccccc4)CC3)c(=O)c2c1S(=O)(=O)N1CCN(c2ncccn2)CC1	inactive: 157%
CCc1cccc(-n2nnc(-c3nsc(NC(=O)c4ccc(C)cc4)n3)c2C)c1	inactive: 53%
CN(CC(=O)Nc1ccc(Cl)cc1F)S(=O)(=O)c1ccc2c(c1)n(C)c(=O)c(=O)n2C	inactive: 120%
CCc1ccc(C(c2ccccc2)c2c[nH]c3ccc(C)cc23)s1 (stereo not drawn)	inactive: 52%
Fc1ccc(C(Nc2ccccc2Cl)c2nnc(-c3ccccc3Cl)o2)cc1 (stereo not drawn)	inactive: 89%
CC(C(=O)Nc1ccccc1C(F)(F)F)n1nnc2sc3c(c2c1=O)CCCC3 (stereo not drawn)	inactive: 88%
O=C(N/C(=C\c1ccc(F)cc1)C(=O)N1CCOCC1)c1ccccc1	inactive: 97%
Cc1ccc(NC(=O)c2cccc(N3CCCS3(=O)=O)c2)cc1C	inactive: 72%
Cc1ccc(NC(=O)[C@H]2O[C@@H]3OC(C)(C)O[C@@H]3[C@H]3OC(C)(C)O[C@H]32)cc1F	inactive: 98%

SMILES	survival
CCS(=O)(=O)NCC(c1ccco1)N1CCN(c2ccccc2)CC1 (stereo not drawn)	inactive: 89%
CCc1ccc(CNC(=O)CSc2c3c(nc4ccc(Cl)cc24)CCCC3)cc1	inactive: 76%
O=C(NCCn1cc(SCc2ccccc2F)c2ccccc21)c1cccs1	inactive: 64%
Cc1ccc2c(c1)C(c1ccccc1)N(C(=O)c1ccc(S(=O)(=O)N3CCCCC3)cc1)CC(=O)N2 (stereo not drawn)	inactive: 86%
CSc1nc(Nc2ccc(C)cc2)c(C#N)c(-c2ccccc2)n1	inactive: 114%
Oc1c(C(c2ccccc2)N2CCN(c3cccc(Cl)c3)CC2)sc2nc(-c3ccco3)nn12 (stereo not drawn)	inactive: 88%
Cc1ccc(CSc2ncc(Cl)c(C(=O)Nc3nc4ccc(C)cc4s3)n2)cc1	inactive: 86%
Cc1ccc(NC(=O)c2cc3nc(-c4ccc5c(c4)OCO5)cc(C(F)(F)F)n3n2)cc1Cl	inactive: 76%
O=C(NCc1ccc(F)cc1)c1ccc(CS(=O)Cc2ccc(Cl)cc2)o1 (stereo not drawn)	inactive: 106%
O=c1c(=O)n(-c2ccccc2)ccn1Cc1cccc(C(F)(F)F)c1	inactive: 108%
O=C1COc2ccc(-c3cc(-c4ccc(F)cc4)c4c(n3)-c3cc(Cl)ccc3OC4)cc2N1	inactive: 81%
COc1ccccc1CNS(=O)(=O)c1cc(Br)cc2c1N(C(C)=O)C(C)C2 (stereo not drawn)	inactive: 64%
Cc1ccc(N2CC(c3nnc(Cc4ccc(F)cc4)o3)CC2=O)cc1 (stereo not drawn)	inactive: 25%
Cc1c(C(=O)Nc2ccccc2Cl)sc2ncnc(N(C)C3CCCCC3)c12	inactive: 81%
CCc1ccc(CNC(=O)C2CCCN(c3nnc(C)c4c(C)n(-c5ccc(OC)cc5)nc34)C2)cc1 (stereo not drawn)	inactive: 71%
O=C(Cc1cccs1)Nc1ccccc1	inactive: 105%
COc1cc(Cl)c(NC(=O)c2cc(CN3CCCC3)on2)c(OC)c1	inactive: 73%
Cc1oc(-c2ccccc2F)nc1CSCC(=O)NCc1ccccc1	inactive: 62%
Cc1cccc(C)c1NC(=O)CSc1ncc2c(n1)-c1ccc(Cl)cc1N(Cc1ccccc1)S2(=O)=O	active: -2%
COc1ccc(Cn2ccnc2SCC(=O)NC2CCCC2)cc1	inactive: 87%
CC(CCc1ccccc1)NC(=O)Cn1c(=O)nc(-c2ccccc2F)c2cc(Cl)ccc21 (stereo not drawn)	inactive: 70%
COc1ccc2c(c1)CC(C(=O)Nc1cccc(C)c1C)CO2 (stereo not drawn)	inactive: 79%

SMILES	survival
CC(C)c1ccc(NC(=O)C2CCCN(S(=O)(=O)c3cccc4nsnc34)C2)cc1 (stereo not drawn)	inactive: 70%
COc1cccc(-n2ccnc2SCC(=O)Nc2ccc(Cl)c(Cl)c2)c1	inactive: 140%
COC(=O)c1ccc(NS(=O)(=O)c2c(C)nc3sccn3c2=O)cc1	inactive: 85%
O=C(CSc1nccn1-c1ccc(Cl)cc1)Nc1cccc2ccccc12	inactive: 74%
CSc1ccc(CCNC(=O)c2ccc3c(c2)nc2n3CCCCC2)cc1	inactive: 99%
CCOC(=O)Cn1c(=O)n(C2CCCCC2)c2nc(-c3ccc(OCC)cc3)nc(C(N)=O)c21	inactive: 117%
COc1ccc(C2CC(=O)c3cnc4c(-c5ccccc5)c(C)nn4c3C2)cc1OC (stereo not drawn)	inactive: 71%
Cc1nn(C)c2c1c(C(F)(F)F)cc(=O)n2C(C)C(=O)NCCc1ccc(Cl)cc1 (stereo not drawn)	inactive: 81%
Cc1c(-c2cccc(NC(=O)c3ccc(F)c(F)c3)c2)nc2ncccn12	inactive: 71%
COCCOC(=O)c1c(C)oc2c1cc(NS(=O)(=O)c1ccc(Cl)c(C)c1)c1ccccc12	inactive: 58%
CCc1ccccc1NS(=O)(=O)c1ccc2oc(=O)c3ncn(C)c3c2c1	inactive: 124%
COc1ccc(OC)c(NC(=O)CSc2nnc(NC(=O)C3CC3)s2)c1	inactive: 135%
COc1ccc(OCc2ccc(-c3nc(C#N)c(NCc4ccccc4)o3)o2)cc1	inactive: 83%
Cc1ccc(Oc2coc3cc(OCC(=O)NC4CCCCC4)ccc3c2=O)cc1	inactive: 77%
N#Cc1ccc(C(=O)Nc2ccccc2-c2nc3ccccc3s2)c(F)c1	inactive: 78%
CNS(=O)(=O)c1ccc(NC(=O)c2cnn3c(C(F)F)cc(-c4ccccc4)nc23)cc1	inactive: 67%
CCOC(=O)c1cnc2c(Cl)c(Cl)ccc2c1NCCN1CCOCC1	inactive: 69%
CCOC(=O)Cc1ccc(NC(=O)n2ncc3cc(Cl)ccc32)cc1	inactive: 85%
O=C(Nc1ccc(F)cc1Cl)C1CCN(c2ncnc3c2nc2n3CCCCC2)CC1	inactive: 77%
S=c1[nH]c2c(s1)sc1ccccc12	inactive: 57%
CN(C1CCCCC1)S(=O)(=O)c1ccc2c(c1)c(=O)c(C(=O)NCc1ccccc1Cl)cn2C	inactive: 79%
CCOc1ccc(C2C(C(=O)OC)=C(C)NC3=C2C(=O)c2ccccc23)cc1OC (stereo not drawn)	inactive: 68%

SMILES	survival
CCc1ccc(NC(=O)C2CCCN(c3nn4cc(-c5ccc(OC)cc5)nc4s3)C2)cc1 (stereo not drawn)	inactive: 73%
Cc1ccc(NC(=O)c2c(C)oc3ccc(O)c(CN4CCCC4)c23)c(C)c1	inactive: 85%
Cc1ccc2onc(CNC(=O)Nc3ccccc3C#N)c2c1	inactive: 85%
O=C(NCC(c1ccc2c(c1)OCO2)N1CCN(c2ccc(F)cc2)CC1)c1cccc([N+](=O)[O-])c1 (stereo not drawn)	inactive: 83%
COc1cccc(CNC(=O)CCc2c(C)nc3c(c2C)c(=O)n(C)c(=O)n3C)c1	inactive: 87%
CCc1ccccc1NC(=O)CSc1ncccc1C(=O)O	inactive: 89%
O=C(CN(Cc1ccco1)C(=O)c1nsc(Cl)c1Cl)NC1CCCCC1	inactive: 119%
COc1ccc(Nc2ncnc3c2c(-c2ccccc2)cn3-c2ccc(C)c(Cl)c2)cc1OC	inactive: 78%
O=C(NCCc1ccc(Cl)cc1)c1ccc(Cn2c(=O)[nH]c3ccccc3c2=O)cc1	inactive: 119%
CC(=O)c1cccc(Nc2ncnc3c2cnn3C)c1	inactive: 76%
CCOc1ccccc1NC(=O)Cc1csc(COc2cccc(C)c2)n1	inactive: 101%
Cc1cccc(NC(=O)CSC2=Nc3ccccc3C3=NC(CCC(=O)NCc4ccc(F)cc4)C(=O)N23)c1 (stereo not drawn)	inactive: 89%
CC(=O)c1ccc(NS(=O)(=O)c2cnc(N)nc2)cc1	active: 1%
Cc1ccc(C(=O)CSc2ncn(-c3ccccc3)n2)cc1	inactive: 110%
CCOc1ccc(CN2C(=O)c3ccccc3Sc3ccc(C(=O)NCCc4ccccc4)cc32)cc1	inactive: 72%
CC(C)=CCC(C)(C)C1OCCN1C(=O)Nc1ccccc1 (stereo not drawn)	inactive: 126%
COc1ccc2[nH]cc(CCNC(=O)Nc3cccc(F)c3)c2c1	inactive: 90%
Cc1ccc(-n2c3c(c(=O)[nH]c2=O)C(NS(=O)(=O)c2ccc(C)cc2)(C(F)(F)F)C(=O)N3)cc1 (stereo not drawn)	inactive: 75%
COC(=O)c1c(NC(=O)COc2c(C)cccc2C)sc2c1CCCC2	active: 6%
CC1CCN(S(=O)(=O)c2ccc(C(=O)Nc3nc4ccc(F)cc4s3)cc2)CC1	inactive: 64%
O=C(CSc1ncc(-c2ccc(F)cc2)n1Cc1ccco1)OC1CCCCC1	inactive: 122%
CCC1C=CCC2C(=O)N(CC(=O)NCCC3=CCCCC3)C(=O)C12 (stereo not drawn)	inactive: 108%
